# Measured values taken from the RNAGym collection of RNA variant scans (doi:10.1093/nar/gkz1192).
# The source gives no read counts; variants with many changes may rest on few reads.
# B1: CPEB3 Ribozyme (parent)
# chain: UAACAGGGGGCCACAGCAGAAGCGUUCACGUCGCAGCCCCUGUCAGAUUCUGGUGAAUCUGCGAAUUCUGCUGUAUAUCUC
# Variants of: B1
# Assay: self-cleavage, relative activity (ratio to wild type); higher = more cleavage; in vitro, sequencing
# In short: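 For each CPEB3 ribozyme variant, relative activity is its cleaved/total read fraction divided by the unmutated ribozyme's. Barcoded error-prone PCR libraries were transcribed by T7 RNA polymerase (5 hours, 37°C) and held in DNase I for 15 min before an EDTA stop, with cleavage occurring throughout. Template-switching reverse transcription and Illumina sequencing were used to read the RNAs. A 5-read minimum applied, and results are the mean of three batches.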
row,Variant,self-cleavage
1,A13U A21G U25C,0.08
2,A13U A21G U25C U49C U51A G70C,0.03
3,A13U A21G U26C U80C,0.39
4,A13U A21G U31C U51C U67A A77G U78A,0
5,A13U A21G U41A A75G,0.15
6,A13U A21G U48C U67C,0.3
7,A13U A21G U49A C71A,0.05
8,A13U A21G U49C U72C,0.07
9,A13U A21G U54C,0.48
10,A13U A21G U66C A75G U80C,1.11
11,A13U A21G U69C A75G,0.07
12,A13U A21U C37G G55U U58C U69A,0.13
13,A13U A21U U25C U41A U49C A57G,0.09
14,A13U A21U U26C A28U A64C U80C,0.07
15,A13U A28G A35U U72C,0.18
16,A13U A28G A45U U60A U66C,0.2
17,A13U A28G C32U,0.09
18,A13U A28G C40U G53C U78G,0.56
19,A13U A28G G46A A47G U54C,0.05
20,A13U A28G U31C C40U U41A,0.08
21,A13U A28G U43C U54C,0.36

row,Variant,self-cleavage
1,A13U A28G U43G A47G,0.15
2,A13U A28G U54A G61U G63C U69C,0.23
3,A13U A28G U58A U78C U80C,0.14
4,A13U A28U A56G,0.47
5,A13U A28U A56G A57G,0.18
6,A13U A28U C29U G46A U67C U69C,0.06
7,A13U A35C C38A U43C G52C,0.11
8,A13U A35G A45C A47U U51C,0.2
9,A13U A35G A56G,1.29
10,A13U A35G A57G G63U,1.28
11,A13U A35G G61C U66A U69C,0.78
12,A13U A35G U41A,0.42
13,A13U A35G U41C A47U G70A,0.47
14,A13U A35G U41C A57G C62U A64U U66C,0.76
15,A13U A35G U43A A47U U67G C81U,0.32
16,A13U A35G U43C U51C U54C U80C,1.18
17,A13U A35U C40G U41C A47G U60C A75C,0.07
18,A13U A35U C44A U51A U69A U74A A75U,0.12
19,A13U A35U U41A A56U A57G U58A U80C,0.12
20,A13U A35U U43C C44U G53A,0.09
21,A13U A35U U49C A64G,0.06

row,Variant,self-cleavage
1,A13U A45G A47G U54C U67C G70A A75C,0.08
2,A13U A45G A56U,0.47
3,A13U A45G U51A U60A U67A,0.41
4,A13U A45U G53A U60C,0.34
5,A13U A45U U58C U69A,0.08
6,A13U A47G U60C U80C,0.3
7,A13U A47G U66C U80C,0.47
8,A13U A56U A75U U76C,1
9,A13U A56U C62U U69A,0.29
10,A13U A56U U66G,0.28
11,A13U A57G C59G A65G U76A,0.17
12,A13U A57G C62A U66C,0.28
13,A13U A64G U67C U69C,0.18
14,A13U A77G U80A,1.14
15,A13U C14A A15U C17A A65U C71U U78C,0.23
16,A13U C14A U25C U41A U67C U69A A77G,0.1
17,A13U C14A U49C U67C U69A,0.16
18,A13U C14A U66C U67C U69A,0.13
19,A13U C14U A35G A45G A56U U66C,0.68
20,A13U C14U A45G,1.16
21,A13U C14U A56G U66C,0.31

row,Variant,self-cleavage
1,A13U C14U C39U,1.01
2,A13U C14U G33C C79U,0.09
3,A13U C14U U58A U66C,0.31
4,A13U C17A A18G U51C U69A,0.1
5,A13U C17A U78C,0.1
6,A13U C17U A18G U25C U60C C68U U80A,0.03
7,A13U C17U A28U U43C U48C A64G,0.05
8,A13U C17U A35G U51A U69C,0.8
9,A13U C17U G33A A56G U60C G73A,0.07
10,A13U C23G A28G C38U A57G A64U,0.03
11,A13U C23G U48C A64U A65G U78C,0.06
12,A13U C23U A28G U43A C81A,0.16
13,A13U C23U U31A U51A,0.11
14,A13U C27U A77G,0.24
15,A13U C27U G33A G36C U67C C71U U80C,0.06
16,A13U C29U A57U U60C U72C,0.08
17,A13U C29U G52A A75G,0.6
18,A13U C32A U66C,0.13
19,A13U C32G U41C U49A,0.08
20,A13U C32U A56G,0.13
